Values marked as one replicate rest on one cluster of the flow cell; about a third of the high ones do not repeat.
What follows are sequences tested on ATP (assay: switch fluorescence ratio, 500 uM ATP over buffer (Cy3 cluster intensity, sum of 5 cycles each) (fold (ratio)); higher = stronger signal-on switching upon ATP binding; sequences stand for … in TCGTCGGCAGCGTCAGATGTGTATAAGAGACAGTTTTTTTTTTTTTTTTTTTTTTTTT…TC). Conditions: aptamer strand: ATP DNA aptamer (quencher-CACCTGGGGGAGTATTGCGGAGGAAGG + anchor), 100 nM annealed; ATP concentration: 500 uM; one replicate.
In short: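 Per cluster, summed Cy3 intensity from the target cycles was divided by that from the buffer cycles to give the fluorescence ratio, then averaged per switch-domain sequence. Clusters outside 100-1000 RFU were excluded. The Cy3-labelled switching-strand clusters, on a modified Illumina MiSeq flow-cell, were annealed to 100 nM quencher-labelled ATP aptamer and imaged in selection buffer, then after 15 min with 500 uM ATP at 22 °C, for five cycles with NaOH stripping and re-annealing between them.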
For TCGCATGAGA, the switch fluorescence ratio was 1.03.
TCGCATGATC showed a switch fluorescence ratio of 1.59.
Work on TCGCCAAAGT yielded a switch fluorescence ratio of 1.04.
For TCGCCCATC, the switch fluorescence ratio was 1.13.
In the case of TCGCCCCCGG, the switch fluorescence ratio is reported as 1.46.
In the case of TCGCCGTGGT, the switch fluorescence ratio is reported as 1.08.
Work on TCGCCTGAAA yielded a switch fluorescence ratio of 1.01.
With TCGCCTTAAG the switch fluorescence ratio was 0.981.
TCGCCTTTAG gave a switch fluorescence ratio of 1.01.
With TCGCGATAAG the switch fluorescence ratio was 1.23.
Sequence TCGCGATTG has a switch fluorescence ratio of 1.02.
Sequence TCGCGTATCG has a switch fluorescence ratio of 0.977.
Sequence TCGCTAGTGG has a switch fluorescence ratio of 0.985.
Work on TCGCTATCTG yielded a switch fluorescence ratio of 1.04.
In the case of TCGCTCTGAA, the switch fluorescence ratio is reported as 1.03.
Sequence TCGCTTCAAC has a switch fluorescence ratio of 1.27.
TCGCTTCGCC showed a switch fluorescence ratio of 1.07.
In the case of TCGCTTTCGG, the switch fluorescence ratio is reported as 1.01.
TCGGAATGTA showed a switch fluorescence ratio of 0.994.
TCGGACAT gave a switch fluorescence ratio of 1.02.
In the case of TCGGAGTGAC, the switch fluorescence ratio is reported as 1.24.
TCGGAGTGCA showed a switch fluorescence ratio of 1.03.
With TCGGAGTTCT the switch fluorescence ratio was 1.02.
TCGGATGGAA showed a switch fluorescence ratio of 1.03.
TCGGCACGGC showed a switch fluorescence ratio of 1.04.
TCGGCAGATT gave a switch fluorescence ratio of 0.997.
Work on TCGGCATTGG yielded a switch fluorescence ratio of 1.04.
TCGGCCAGCT was tested, and the switch fluorescence ratio was 1.04.
Sequence TCGGCCCCGT has a switch fluorescence ratio of 1.22.
For TCGGCGTATT, the switch fluorescence ratio was 0.982.
With TCGGCGTCTA the switch fluorescence ratio was 0.988.
Work on TCGGCGTCTG yielded a switch fluorescence ratio of 0.991.
TCGGCGTTAT gave a switch fluorescence ratio of 0.958.
TCGGCTGGA gave a switch fluorescence ratio of 1.03.
In the case of TCGGGACTGG, the switch fluorescence ratio is reported as 1.07.
Work on TCGGGAGATA yielded a switch fluorescence ratio of 0.993.
In the case of TCGGGAGCCA, the switch fluorescence ratio is reported as 0.986.
In the case of TCGGGCATCT, the switch fluorescence ratio is reported as 0.969.
For TCGGGGAAGA, the switch fluorescence ratio was 1.04.
TCGGGGTTAA gave a switch fluorescence ratio of 0.971.
In the case of TCGGGTCACA, the switch fluorescence ratio is reported as 0.995.
For TCGGGTGATC, the switch fluorescence ratio was 1.01.
In the case of TCGGTAACTC, the switch fluorescence ratio is reported as 1.17.
TCGGTAGCTC was tested, and the switch fluorescence ratio was 1.24.
In the case of TCGGTATTCA, the switch fluorescence ratio is reported as 0.995.
TCGGTCAGAT gave a switch fluorescence ratio of 1.
TCGGTGACCG showed a switch fluorescence ratio of 0.988.
For TCGGTGAGTT, the switch fluorescence ratio was 0.999.
TCGGTGGGAT showed a switch fluorescence ratio of 1.01.
TCGGTTACTG showed a switch fluorescence ratio of 1.07.
TCGGTTAGCA was tested, and the switch fluorescence ratio was 1.01.
With TCGGTTCACT the switch fluorescence ratio was 0.975.
For TCGGTTGGCA, the switch fluorescence ratio was 1.02.
TCGGTTTCTC gave a switch fluorescence ratio of 0.993.
Sequence TCGTAATCC has a switch fluorescence ratio of 2.22.
Sequence TCGTAATTTT has a switch fluorescence ratio of 0.947.
TCGTACTGAG gave a switch fluorescence ratio of 1.06.
For TCGTAGCGCG, the switch fluorescence ratio was 1.03.
TCGTAGCTGC was tested, and the switch fluorescence ratio was 1.93.
In the case of TCGTAGTATA, the switch fluorescence ratio is reported as 1.1.
Work on TCGTATACCA yielded a switch fluorescence ratio of 1.04.
Sequence TCGTATCTGA has a switch fluorescence ratio of 0.971.
For TCGTATTCT, the switch fluorescence ratio was 1.01.
Work on TCGTATTGAT yielded a switch fluorescence ratio of 0.967.
TCGTCCAGTC showed a switch fluorescence ratio of 1.02.
TCGTCCGAAA gave a switch fluorescence ratio of 1.64.
TCGTCGGGCG showed a switch fluorescence ratio of 0.991.
For TCGTCGGTAG, the switch fluorescence ratio was 0.989.
TCGTCTTGTG showed a switch fluorescence ratio of 1.02.
TCGTGAAAGC gave a switch fluorescence ratio of 1.02.
For TCGTGAATGG, the switch fluorescence ratio was 1.02.
For TCGTGATGA, the switch fluorescence ratio was 1.01.
TCGTGATGGG was tested, and the switch fluorescence ratio was 1.06.
Work on TCGTGATTAT yielded a switch fluorescence ratio of 1.04.
TCGTGCAGAG showed a switch fluorescence ratio of 1.05.
Sequence TCGTGGATAC has a switch fluorescence ratio of 2.54.
With TCGTGGCTGG the switch fluorescence ratio was 1.01.
TCGTGGTATA gave a switch fluorescence ratio of 0.964.
In the case of TCGTGTATAC, the switch fluorescence ratio is reported as 2.05.
TCGTGTTAAC showed a switch fluorescence ratio of 1.02.
TCGTGTTCAA was tested, and the switch fluorescence ratio was 1.03.
With TCGTTAACTC the switch fluorescence ratio was 1.05.
TCGTTACTCT showed a switch fluorescence ratio of 0.988.
In the case of TCGTTATAGC, the switch fluorescence ratio is reported as 1.07.
TCGTTATTTC showed a switch fluorescence ratio of 1.04.

From the supplement of paper PMC10126150
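Further: ATP exposure 15 min at 22 °C before imaging.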
